Results on 36 compounds are retold here after PubChem BioAssay (NCI).

SMILES strings stand for the structures.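 Following 48 hours of exposure in 96-well plates, responses at five concentrations were used to interpolate endpoints linearly. GI50 marks 50% less growth. TGI: total growth inhibition.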 Peptide text beside a SMILES is read from it. * marks the point of attachment. Boc = CC(C)(C)OC(=O)*

This test relates to NCI-H322M lung. In words: growth of human tumour cells (NCI), 48 h.

Regarding `O=C1CSC(c2ccc([N+](=O)[O-])cc2)N1c1nc(-c2ccc3c(c2)CCCC3)cs1` (stereo unspecified), the TGI was > 100 µM.
On the same count and under the same terms, the figure for `Cc1noc(C)c1-n1nc2ccc3nonc3c2n1` is > 100 µM.
On the same count and under the same terms, the figure for `CCN(CC)CC1CCCCN1CC(=O)N1c2ccccc2NC(=O)c2ccccc21` (stereo unspecified) is > 100 µM; for `C[N+]1([O-])CCC(O)(C2CC2)CC1` (stereo unspecified) it is > 100 µM.
Still for that read-out and setting: as for `NC(=S)Nc1[nH]c(=S)nc2[nH]ccc12`, the figure is > 100 µM; as for `CC1=NN(c2cccc(Cl)c2)C2(C1=Cc1ccccc1)C(Cl)C(=O)N2c1nc2ccccc2s1` (stereo unspecified), 65.6 µM.
Regarding `CC(=O)Nc1ccccc1S(=O)(=O)c1ccccc1`, the TGI was > 100 µM.
Same read-out and setting: as for `CC1CCC2(OC1)OC1CC3C4CCC5CC(O)CCC5(C)C4CC(=O)OC3(C)C1C2C` (stereo unspecified), the figure is > 100 µM; as for `Oc1ccc[n+](Cc2ccccc2)c1`, > 100 µM; as for `Cc1n[nH]c(=S)n1/N=C/c1ccc(-c2ccc(Cl)cc2)o1`, > 100 µM.
In the case of `COc1ccc([C@H]2CC(=O)C[C@H](c3ccc(OC)cc3OC)C23C(=O)c2ccccc2C3=O)c(OC)c1`, the TGI was > 100 µM.
On the same count and under the same terms, the figure for `CCC1=C(CC)C1(C#N)[N+](=O)[O-]` is > 100 µM; for `COC1CC(Br)(C#N)C1` (stereo unspecified) it is > 100 µM; for `O=C1C(Br)=C(C2=CC(=P(c3ccccc3)(c3ccccc3)c3ccccc3)C=C2)C(=O)C(Br)=C1C1=CC(=P(c2ccccc2)(c2ccccc2)c2ccccc2)C=C1` it is > 100 µM.
As for `COC(=O)[C@@]1(C)CCC[C@]2(C)[C@H]3Cc4occc4[C@H](C)[C@@H]3CC[C@@]12O`, the GI50 is 43.9 µM and the TGI was > 100 µM.
With `COc1cc(OC)c2nc3occc3c(OC)c2c1`, the TGI is > 100 µM.
Take `CC12c3c4cccc3Oc3cc(N)cc(c31)Oc1cc(N)cc(c12)O4`: the TGI turned out to be 18.9 µM.
Still for that read-out and setting: the figure for `CCN(CC)CCNC(=O)c1cc2cc(NC(=O)c3cc4cc(N)ccc4[nH]3)ccc2[nH]1` is 69.8 µM; for `CC(C)(C)OC(=O)NC(Cc1ccccc1)C(=O)N1CCCC1C(N)=O` (stereo not drawn) (Boc-Phe-Pro-NH2; configuration not given here) it is > 100 µM.
`COc1ccc(OC)c(/C=C/C(=O)N/N=C/c2ccccc2)c1`: the GI50 was 5.23 µM and the TGI was > 100 µM.
Turning to `CC1(C)CC(=O)c2c(nc3c4c([nH]c(-c5ccc([N+](=O)[O-])cc5)c24)CC(C)(C)C3)C1`, the TGI is > 100 µM.
The same measure, in the same setting: the figure for `C=CC1(c2ccc(-c3ccccc3)cc2)OCCO1` is > 100 µM.
On the same count and under the same terms, the figure for `CC12CCCCC1C(=O)C2(Cl)Cl` (stereo unspecified) is 13.9 µM.
On the same count and under the same terms, the figure for `O=C(O)CNS(=O)(=O)c1ccc(NC(=O)c2ccccc2[N+](=O)[O-])cc1` is > 100 µM.
Regarding `Cc1ccc(S(=O)(=O)N(/N=C/C=C/c2ccccc2)c2nnc(-c3ccccc3)c(-c3ccccc3)n2)cc1`, the TGI stood at 83.5 µM.
Turning to `COc1cc([C@@H]2c3cc4c(c(O[C@@H]5O[C@H]6CO[C@@H](C)O[C@H]6[C@H](O)[C@@H]5O)c3C[C@H]3COC(=O)[C@@H]32)OCO4)cc(OC)c1O`, the TGI is > 100 µM.
The same measure, in the same setting: as for `COc1cc(COC(=O)N2CSCC2C(=O)O)c([N+](=O)[O-])cc1OC` (stereo unspecified), the figure is > 100 µM.
Still for that read-out and setting: the figure for `COc1ccc(/C=C/c2cc(OC)c(OC)c(OC)c2)cc1O[Si](C)(C)C(C)(C)C` is > 100 µM.
As for `CCn1nc(-c2ccc(C(=O)OC)cc2)nc2c(=O)n(C)c(=O)nc1-2`, the GI50 was 0.32 µM and the TGI is 1.39 µM.
With `O=C(NC1C(O)C(O)C(CO)OC1n1cc(F)c(=O)[nH]c1=O)OCc1ccccc1` (stereo unspecified), the TGI was > 100 µM.
As for `ClC(Cl)c1nc(-c2ccccc2)n2nc(-c3ccccc3)cc2n1`, the GI50 was 0.414 µM and the TGI stood at 1.71 µM.
Turning to `CCc1cccc(C)c1NC(=O)CCc1n[nH]c(=S)o1`, the TGI was > 100 µM.
Take `Cn1c(=O)nc2n(-c3cccc(Cl)c3)c3ccccc3nc-2c1=O`: the TGI turned out to be 66.6 µM.
Same read-out and setting: as for `C#CCCCCC#Cc1ccccc1C(=O)C=[N+]=[N-]`, the figure is > 100 µM.
With `Nc1cc(N)c2nc(-c3ccccc3)c(NCCc3ccc(Cl)c(Cl)c3)nc2c1`, the GI50 is 3.35 µM and the TGI came to 14.9 µM.
`Cc1ccc(-c2nc3cc(N4CCN(C)CC4)c(F)cc3[nH]2)cc1` came in with a TGI of 50.8 µM.
